Laboratory results taken from PubChem BioAssay AID485294 (National Center for Advancing Translational Sciences (NCATS), 2010).
Out of some 370,000 compounds screened, about 150 (0.041%) were called active. Inconclusive means that the source gave no clear call. Such entries were picked first, then a sample of the others. The call rests on the fitted dose curve; in most records, active means well fitted inhibition curve with a large enough effect; inconclusive means small, poorly fitted or top-dose-only effect; inactive means flat fitted curve, though single readings scatter. Potencies of inconclusive entries are left out as doubtful fits.

The molecules below were run against Beta-lactamase (Escherichia coli (strain K12)) (UniProt P00811) (assay: qHTS Inhibitors of AmpC Beta-Lactamase (assay with detergent)). Conditions: AmpC hydrolysis of nitrocefin, absorbance 480 nm, 0.01% Triton; activity change, negative = inhibition: at 114 µM (top of the series).
Method in brief: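 AmpC (5.3 nM in the dispensed reagent) in 20 mM phosphate pH 7.0 with 0.01% (detergent screen) or 0.0001% Triton X-100 was preincubated with compounds for 15 min at room temperature. Nitrocefin was then added from an 800 uM solution, and hydrolysis was followed at 480 nm.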
Further: nearly all actives have a fitted effect of over 25% in size.
Potency means the concentration at half of the fitted maximal effect; tags describe the fitted curve by direction and shape.
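Wherever activity change, negative = inhibition is given: 0% = no-compound wells and -100% = no-enzyme wells.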

Sequence of UniProt P00811 (P00811 whole entry, looked up): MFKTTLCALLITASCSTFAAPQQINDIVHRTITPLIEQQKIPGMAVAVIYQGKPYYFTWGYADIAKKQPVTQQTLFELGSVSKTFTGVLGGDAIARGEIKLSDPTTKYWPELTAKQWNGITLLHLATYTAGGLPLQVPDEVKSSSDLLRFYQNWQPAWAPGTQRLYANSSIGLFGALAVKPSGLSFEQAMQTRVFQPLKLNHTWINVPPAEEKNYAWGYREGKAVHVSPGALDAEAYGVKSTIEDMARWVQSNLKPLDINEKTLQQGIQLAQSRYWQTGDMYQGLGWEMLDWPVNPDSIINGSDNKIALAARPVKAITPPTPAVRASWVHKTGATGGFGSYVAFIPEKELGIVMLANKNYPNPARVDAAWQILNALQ

Compound	Potency	activity change, negative = inhibition
Cc1cc(NC(=O)C2CCCN(S(=O)(=O)c3c(C)noc3C)C2)no1 (configuration not stated)	inconclusive [inhibitor, full curve, poor fit]	
C[C@@H]1C=CC(=O)O[C@@H]1c1ccc(C(F)(F)F)cc1	inconclusive [inhibitor, full curve, poor fit]	
Cc1cc(C)n2nc(SCC(=O)Nc3c(C)n(C)n(-c4ccccc4)c3=O)nc2n1	inconclusive [inhibitor, partial curve, poor fit]	
Cc1cccnc1NC(=O)c1c(O)c2cccc3c2n(c1=O)CCC3	inconclusive [inhibitor, full curve, poor fit]	
Cc1cc(Oc2ccccc2)nc(SCC(=O)Nc2ccc(Cl)c(Cl)c2)n1	inconclusive [inhibitor, full curve, poor fit]	
Cc1ccc(-n2ncc3c(=O)n(CC(N)=O)cnc32)cc1C	inconclusive [inhibitor, partial curve, poor fit]	
COc1ccc(-n2ncc3c(NC4CCCC4)ncnc32)cc1		inactive: 2.28%
O=C(N/N=C/c1c(O)n(-c2cccc3ccccc23)c(=O)[nH]c1=O)c1ccncc1		inactive: 2.57%
Nc1ccc(O)c2c(=O)cc(-c3ccccc3Cl)oc12	inconclusive [inhibitor, full curve, poor fit]	
C1=C(c2ccccc2)CCN(c2ncnc3nc[nH]c23)C1	inconclusive [inhibitor, partial curve]	
COc1ccc(/C=C\C(=O)NCC(=O)N/N=C/c2cccc(OC)c2O)cc1		inactive: -1.95%
CC1CCC(=NNC(=O)c2ccccc2-n2cccc2)CC1 (configuration not stated)	inconclusive [inhibitor, full curve, poor fit]	
COc1ccc(N(CC(=O)Nc2ccc3c(c2)OCCO3)S(=O)(=O)c2cccnc2)cc1		inactive: 2.56%
CCCN(CC(=O)Nc1ccccc1C)C(=O)c1ccc(NC2CC2)c([N+](=O)[O-])c1	inconclusive [inhibitor, partial curve, poor fit]	
CCN(CC)S(=O)(=O)c1cccc(C(=O)NCC2CCCCC2)c1	inconclusive [inhibitor, full curve, poor fit]	
Nc1nnc(CC(=O)N/N=C\c2cc([N+](=O)[O-])ccc2O)s1	inconclusive [inhibitor, full curve]	
Oc1[nH]c2ccccc2c1N=Nc1ccccc1	inconclusive [inhibitor, partial curve, poor fit]	
CC(CN(C)Cc1ccccc1)OC(=O)c1ccccc1F (configuration not stated)	inconclusive [inhibitor, full curve, poor fit]	
Cc1cc(C(=O)N2CCN(CCc3ccccc3)CC2)no1	inconclusive [inhibitor, partial curve]	
CCOc1cc(/C=N/NC(=O)c2ccncc2)ccc1OS(C)(=O)=O	inconclusive [inhibitor, full curve, poor fit]	
O=C(CN1C(=O)CC(c2ccccc2)Sc2ccccc21)NCC1CCCO1 (configuration not stated)		inactive: 3.04%

Compound	Potency	activity change, negative = inhibition
O=C(C1CCCN(S(=O)(=O)c2cccc3nsnc23)C1)N1CCN(c2ccccc2F)CC1 (configuration not stated)		inactive: -1.82%
O=C(COC(=O)CCC(=O)c1ccc2c(c1)OCCO2)NCc1ccc2c(c1)OCO2	inconclusive [inhibitor, full curve, poor fit]	
Cc1ccc(NC(=O)CCC(=O)NNC(=O)c2cccs2)c(C)c1	inconclusive [inhibitor, full curve, poor fit]	
CCOC(=O)c1[nH]c(CN2CCN(c3ccc(OC)cc3)CC2)c(C(=O)OCC)c1C		inactive: -11.9%
O=C(COC(=O)C12CC3CC(CC(Cl)(C3)C1)C2)Nc1ccc2[nH]c(=O)[nH]c2c1		inactive: -2.34%
COC(=O)C1=C(C)NC(=O)/C1=C\c1ccc2c(c1)OCO2	inconclusive [inhibitor, single point]	
O=C(Nc1nnc(C2CC2)s1)c1cccs1	inconclusive [inhibitor, single point]	
O=C(CCCc1ccccc1)NCc1cccnc1	inconclusive [inhibitor, full curve, poor fit]	
CCCS(=O)(=O)N1CCN(Cc2ccncc2)CC1	inconclusive [inhibitor, full curve, poor fit]	
O=C(Cn1cc2c(n1)CCCC2)Nc1ccccc1Cl	inconclusive [inhibitor, partial curve]	
CC(C)(C)OC(=O)N1CCC[C@H]1C(=O)NCC1CCC(C(=O)O)CC1 (some centres not stated)	inconclusive [inhibitor, full curve, poor fit]	
CCOc1ccccc1N(CC(=O)NCCc1ccc(OC)c(OC)c1)S(=O)(=O)c1ccccc1	inconclusive [inhibitor, single point]	
CCOC(=O)CN1CC23C=CC(O2)C(C(=O)NCc2cccs2)C3C1=O (configuration not stated)	inconclusive [inhibitor, single point]	
COc1ccc2oc(C(=O)CCC(=O)O)c(N)c2c1	inconclusive [inhibitor, full curve, poor fit]	
O=S(=O)(c1ccccc1)n1cc(-c2ccccn2)c(N2CCOCC2)n1	inconclusive [inhibitor, single point]	
O=C(CC1Sc2ccccc2NC1=O)OCC(=O)N1CCc2ccccc21 (configuration not stated)	inconclusive [inhibitor, single point]	
CCc1nc2ccccc2c(C(=O)Nc2cc(C)ccc2C)c1C	inconclusive [inhibitor, full curve, poor fit]	
Cc1cccc(N2C(N)=NC(N)=NC23CCCCC3)c1		inactive: -11.5%
O=C(Nc1ccc(F)cc1C(F)(F)F)C1CCN(c2ncccn2)CC1		inactive: 16.3%
Cc1ccc(C)c(NC(=O)CSc2nnc(CSc3nc(C)cc(C)n3)n2Cc2ccco2)c1		inactive: -8.19%
COc1ccc(OC)c(S(=O)(=O)N2CCN(C(=O)NC3CCCCC3)CC2)c1		inactive: -3.01%
